{"source": "PubChem BioAssay AID1347073", "about": "(National Center for Advancing Translational Sciences (NCATS), 2019)", "note": "The whole screen tested about 45,000 compounds, of which about 200 (0.44%) were called active. About 7% were inconclusive and are not listed. The call rests on the fitted dose curve; in most records, active means well fitted activation curve with a large enough effect; inconclusive means small, poorly fitted or top-dose-only effect; inactive means no such curve, though single readings can be large or run the other way. The list shows a part of the results. Potency means the concentration at half of the fitted maximal effect.", "data": [{"experiment": "qHTS of TDP-43 Inhibitors: NCGC Sytravon Library Screen; further: nearly all actives have a fitted effect of over 55% in size; on growth rescue (activation): 0% is about no effect", "conditions": "yeast TDP-43 toxicity rescue, BacTiter-Glo growth, 24 h; series mostly up to 46.1 µM; growth rescue (activation): at the top concentration", "how_it_was_run": "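TDP-43-expressing yeast, pregrown in raffinose, seeded at OD600 0.02 in galactose medium with compound for 24 hr at 30 deg C. Growth read by BacTiter-Glo luminescence, so rescue of toxicity appears as activation.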", "values": [{"smiles": "CCOC(=O)/C(=N\\Nc1cc(Cl)ccc1Cl)N1CCOCC1", "growth rescue (activation)": "inactive: -8.84%"}, {"smiles": "O=C(O)c1cccnc1-c1ncccc1C(=O)O", "growth rescue (activation)": "inactive: 27.3%"}, {"smiles": "O=C(O)/C=C/C(=O)c1ccc(O)cc1", "growth rescue (activation)": "inactive: -41.5%"}, {"smiles": "Cc1ccc(-n2c([S-])c(C(=O)NC(C)c3ccccc3)[n+]3ccccc23)cc1", "note": "(centres undefined)", "growth rescue (activation)": "inactive: 9.72%"}, {"smiles": "CN(C)S(=O)(=O)c1cc(NC(=O)c2cc(=O)c3ccccc3o2)ccc1Cl", "growth rescue (activation)": "inactive: -2.37%"}, {"smiles": "CCOC(=O)C1=C(CC)Nc2ccccc2N/C1=N\\S(=O)(=O)c1ccc(C(=O)OCC)cc1", "growth rescue (activation)": "inactive: 6.12%"}, {"smiles": "CC(=O)c1ccc(NC(=S)Nc2ccc3[nH]c(=O)[nH]c3c2)cc1", "growth rescue (activation)": "inactive: 9.24%"}, {"smiles": "COc1ccc(C(=O)NC2CCN(C(=S)Nc3ccccc3C)CC2)cc1", "growth rescue (activation)": "inactive: 4.27%"}, {"smiles": "Cc1cc(C)nc(NNC2=CC(=O)CC(C)(C)C2)n1", "growth rescue (activation)": "inactive: -10.3%"}, {"smiles": "COC(=O)c1ccc(C)c(NC(=O)CCn2[nH]c(=O)ccc2=O)c1", "growth rescue (activation)": "inactive: -2.3%"}, {"smiles": "CC1CCCN(c2c3c(nc4ccccc24)CCCC3)C1", "note": "(centres undefined)", "growth rescue (activation)": "inactive: -0.496%"}, {"smiles": "O=C1Cc2ccccc2C(=O)N1c1ccccc1", "growth rescue (activation)": "inactive: 3.44%"}, {"smiles": "COc1cc(NC(=O)c2ccc(OC)c([N+](=O)[O-])c2)ccc1NC(=O)c1ccco1", "growth rescue (activation)": "inactive: -4.8%"}, {"smiles": "COC(=O)c1sc(NC(=S)NC(=O)c2ccccc2F)nc1C", "growth rescue (activation)": "inactive: -7.99%"}, {"smiles": "Cc1ccc(C)c(NC(=O)Cc2csc(-c3ccccc3)n2)c1", "growth rescue (activation)": "inactive: 14.8%"}, {"smiles": "CCC(=O)Nc1cccc(NC(=S)NC(=O)c2cccs2)c1", "growth rescue (activation)": "inactive: 34.6%"}, {"smiles": "CCCC(=O)N1CCCC1(C)C(=O)N(C)Cc1cccc2ccccc12", "note": "(centres undefined)", "growth rescue (activation)": "inactive: 6.34%"}, {"smiles": "Cc1ccc2[nH]c3c(=O)n4c(nc3c2c1)SCC4", "growth rescue (activation)": "inactive: 13.1%"}, {"smiles": "CC(C)Oc1ccc(OCCn2c(=S)[nH]c3c(N)ncnc32)cc1", "growth rescue (activation)": "inactive: -9.53%"}, {"smiles": "COc1cc(C(=O)NC(=S)Nc2nccs2)cc(OC)c1OC", "growth rescue (activation)": "inactive: 10.6%"}, {"smiles": "NNC(=O)CNC(c1ccccc1)c1cc(Br)ccc1NC(=O)c1cccc(Cl)c1", "note": "(centres undefined)", "growth rescue (activation)": "inactive: 16.9%"}, {"smiles": "CCOCCCNC(=O)c1ccc2c(c1)N=C(CC)c1cc(Br)ccc1S2", "growth rescue (activation)": "inactive: 8.23%"}, {"smiles": "COCC(C)n1c(C)cc(C(=O)CSc2nnc(-c3ccco3)o2)c1C", "note": "(centres undefined)", "growth rescue (activation)": "inactive: 22.4%"}, {"smiles": "Cc1cc(C)c(NC(=O)CS(=O)CC(=O)N2CCN(c3cccc(C)c3C)CC2)c(C)c1", "note": "(centres undefined)", "growth rescue (activation)": "inactive: 1.34%"}, {"smiles": "C/C(=N\\N=C\\c1ccc(N(C)C)cc1)c1cccc([N+](=O)[O-])c1", "growth rescue (activation)": "inactive: -0.793%"}, {"smiles": "COC(=O)CC(NC(=O)Nc1ccc(C)cc1)c1cccc([N+](=O)[O-])c1", "note": "(centres undefined)", "growth rescue (activation)": "inactive: 0.254%"}, {"smiles": "COc1cc(SC)ccc1C(=O)N1CCN(Cc2ccccc2)CC1", "growth rescue (activation)": "inactive: 0.293%"}, {"smiles": "CC(=O)CSc1cc(C)nc2c(-c3ccccc3)c(C)nn12", "growth rescue (activation)": "inactive: -6.2%"}, {"smiles": "CC(=O)Nc1ccc(NC(=O)CCCSc2nc3ccccc3[nH]2)cc1", "growth rescue (activation)": "inactive: -11.7%"}, {"smiles": "Cc1cc(SCC(=O)N/N=C/c2ccco2)nc2ccccc12", "growth rescue (activation)": "inactive: 27.2%"}, {"smiles": "CNC(=S)N(C1=NCC(c2ccc([N+](=O)[O-])cc2)S1)c1ccccc1", "note": "(centres undefined)", "growth rescue (activation)": "inactive: 27.1%"}, {"smiles": "O=Cc1cnc(N2CCN(Cc3ccccc3)CC2)s1", "growth rescue (activation)": "inactive: 3.44%"}, {"smiles": "COc1cccc(C(=O)NCCCNC(=O)c2ccco2)c1", "growth rescue (activation)": "inactive: -5.28%"}, {"smiles": "O=C(CCS(=O)(=O)c1ccccc1)Nc1ccc(N2CCOCC2)cc1", "growth rescue (activation)": "inactive: -11.2%"}, {"smiles": "Cc1ccc(N/N=C(\\C#N)C(=N)N2CCCCCC2)cc1", "growth rescue (activation)": "inactive: 10.7%"}, {"smiles": "COCCNC(=O)c1ccccc1NC(=O)c1cccc([N+](=O)[O-])c1C", "growth rescue (activation)": "inactive: 7.47%"}, {"smiles": "O=C(NCCCNC(=O)c1ccccn1)c1cccc(F)c1", "growth rescue (activation)": "inactive: 1.76%"}, {"smiles": "N#C/C(=C/c1ccc(OC(=O)c2ccc(Br)s2)cc1)c1nc2ccccc2[nH]1", "growth rescue (activation)": "inactive: -0.922%"}, {"smiles": "CC(C)c1ccc(/C=N/NC(=O)c2cccc(S(=O)(=O)N3CCOCC3)c2)cc1", "growth rescue (activation)": "inactive: 17.4%"}, {"smiles": "COc1ccc(/C=C/C(=O)O/N=C(\\N)c2ccccn2)cc1OC", "growth rescue (activation)": "inactive: 4.06%"}, {"smiles": "COc1ccccc1C1c2ccc3ccccc3c2Oc2ncn(CCN(C)C)c(=N)c21", "note": "(centres undefined)", "growth rescue (activation)": "inactive: 6.58%"}, {"smiles": "Cc1ccc(C)c(N2C(=O)c3cc(N4CCOCC4)c([N+](=O)[O-])cc3C2=O)c1", "growth rescue (activation)": "inactive: 5.06%"}, {"smiles": "O=C(Cn1cc(C(=O)C2CC2)c2ccccc21)Nc1ccccc1Cl", "growth rescue (activation)": "inactive: 8.03%"}, {"smiles": "Cc1ccc(NC(=O)COc2ccc(C3SCCS3)cc2)cc1", "growth rescue (activation)": "inactive: -17.9%"}, {"smiles": "COC(=O)c1c(NC(=O)COC(=O)CNC(=O)c2ccco2)sc(C)c1C", "growth rescue (activation)": "inactive: 25.9%"}, {"smiles": "O=C(C1COc2ccccc2O1)N1CCN(c2ccc([N+](=O)[O-])cc2)CC1", "note": "(centres undefined)", "growth rescue (activation)": "inactive: 25.7%"}, {"smiles": "CC(C)CN(CC(C)C)S(=O)(=O)N1CCC(C(=O)NCc2cccnc2)CC1", "growth rescue (activation)": "inactive: -2.94%"}, {"smiles": "O=C(COC(=O)c1cccc(NS(=O)(=O)/C=C/c2ccccc2)c1)Nc1ccccc1OC(F)F", "growth rescue (activation)": "inactive: -19.6%"}, {"smiles": "CN(Cc1ccccc1)c1ccc(C(=O)O)cc1[N+](=O)[O-]", "Potency": "active: 15.8 µM"}, {"smiles": "COc1ccccc1NC(=O)Nc1ccc(N2CCOCC2)cc1", "growth rescue (activation)": "inactive: 11.8%"}, {"smiles": "Cc1ccc(NC(=O)c2cnccn2)cc1S(=O)(=O)N(C)C", "growth rescue (activation)": "inactive: 7.13%"}, {"smiles": "Cc1c(N=NC2=C(O)CC(C)(C)CC2=O)c(=O)n(-c2ccccc2)n1C", "growth rescue (activation)": "inactive: -18.3%"}, {"smiles": "O=C(Nc1ccc(Br)cn1)c1cccc(S(=O)(=O)N2CCCC2)c1", "growth rescue (activation)": "inactive: -1.01%"}, {"smiles": "Cn1c2c(c(=O)n(C)c1=O)CN(Cc1ccco1)CN2", "growth rescue (activation)": "inactive: 9.15%"}, {"smiles": "CC(C)(C)OC(=O)N1CCN(C(=O)c2cccnc2Cl)CC1", "growth rescue (activation)": "inactive: 8.01%"}, {"smiles": "Cc1ccc(-c2nnc(SCC(N)=O)n2C)cc1", "growth rescue (activation)": "inactive: -5.95%"}, {"smiles": "CCC(=O)Oc1ccc2c(C)cc(=O)oc2c1C(=O)CC", "growth rescue (activation)": "inactive: -3.57%"}, {"smiles": "CCc1nc2ccc(C(=O)NCCC(C)C)cn2c1N(CC)CCOC", "growth rescue (activation)": "inactive: -0.438%"}, {"smiles": "CN(C)S(=O)(=O)c1cccc(NC(=O)CN2C(=O)NC(Cc3c[nH]c4ccccc34)C2=O)c1", "note": "(centres undefined)", "growth rescue (activation)": "inactive: -27.7%"}, {"smiles": "O=C(c1ccc(-c2ccccc2)cc1)N1CCN(c2ccccn2)CC1", "growth rescue (activation)": "inactive: 9.96%"}, {"smiles": "COc1ccc(C(O)(CCC(C)C)C(CN2CCOCC2)c2ccc(Cl)cc2)cc1", "note": "(centres undefined)", "growth rescue (activation)": "inactive: -0.207%"}, {"smiles": "CCCN(C(=O)c1cc2c(s1)-c1ccccc1SC2)c1ccccc1F", "growth rescue (activation)": "inactive: 16.9%"}, {"smiles": "CC(C)C(=O)N1CCCC1(C)C(=O)Nc1cccc(Oc2ccccc2)c1", "note": "(centres undefined)", "growth rescue (activation)": "inactive: 9.96%"}, {"smiles": "CC(C)CCNC(=O)C(=O)NCCC1=CCCCC1", "growth rescue (activation)": "inactive: 0.941%"}, {"smiles": "CCOC(=O)Cc1cc(=O)n2[nH]cc(-c3ccc(Cl)cc3)c2n1", "growth rescue (activation)": "inactive: 2.78%"}, {"smiles": "Cc1ccc(S(=O)(=O)c2cc3c(=O)n4cccc(C)c4nc3n(C3CCCCC3)c2=N)cc1", "growth rescue (activation)": "inactive: -6.67%"}, {"smiles": "CCOc1ccc(OCC(=O)OCC(=O)Nc2ccccc2C#N)cc1", "growth rescue (activation)": "inactive: 12.1%"}, {"smiles": "Cc1nnc(NC(=O)c2nc(S(=O)(=O)Cc3ccccc3)ncc2Cl)s1", "growth rescue (activation)": "inactive: 18.2%"}, {"smiles": "O=C(NCCc1ccccc1)C(=O)NN=C1CCCC1", "growth rescue (activation)": "inactive: 11.4%"}]}]}
